In PubChem BioAssay (Tox21):
Inconclusive results are not listed. The call rests on the fitted dose curve; in most records, active means well fitted cell-killing curve with a large enough effect in the repeat runs; inconclusive means weak or mixed curves, or effect the other way; inactive means no such curve, though single readings can be large or run the other way. More than one record can exist for a structure, and the calls need not agree. Some entries of the source have several records that differ or are many. The list is limited to them. The source may hold further records. Values that stand side by side repeat one measurement in other runs, samples, wells, individuals or studies. Marks in square brackets tell the records apart. A, B and so on number the origins entry by entry.

Assay: qHTS assay to identify small molecule antagonists of the glucocorticoid receptor (GR) signaling pathway - cell viability counter screen (AID 720693); further: nearly all actives have a fitted effect of over 55% in size
Details: GR-bla HeLa viability, CellTiter-Glo luminescence, 18 h, with 5 nM dexamethasone present; series mostly up to 58.5 µM
Potency means the concentration at half of the fitted maximal effect.

In the case of C[C@]12CC[C@@H]3c4ccc(O)cc4CC[C@H]3[C@@H]1CC[C@@H]2OC(=O)CCC1CCCC1, the Potency is reported as “inactive [sample A] and inactive [sample B] and active: 54.9 µM [sample C]”.
